In the assay the target is T1, TWEAKR protein (TPP-2305) (Homo sapiens, UniProt Q9NP84).
T1 construct: TPP-2305; hTNFRSF12Aaa28-80; Human; 30R-AT080; 168; purchased Fitzgerald Inc 30R-AT080
Description: Biacore monovalent KD with TWEAKR protein. Conditions: first order 1:1 binding model. As for the experimental part: Binding affinities of anti-TWEAKR antibodies were determined by surface plasmon resonance analysis on a Biacore T100 instrument (GE Healthcare Biacore, Inc.). Antibodies were immobilized onto a CM5 sensor chip through an indirect capturing reagent, anti-human IgG(Fc). Reagents from the “Human Antibody Capture Kit” (BR-1008-39, GE Healthcare Biacore, Inc.) were used as described by the manufacturer. Anti-TWEAKR antibodies were injected at a concentration of 10 μg/ml at 10 μl/min for 10 sec.
Sensorgrams were generated after in-line reference cell correction followed by buffer sample subtraction. The dissociation equilibrium constant (KD) was calculated based on the ratio of association (kon) and dissociation rated (koff) constants, obtained by fitting sensorgrams with a first order 1:1 binding model.
(In SPR one partner is held on a chip, and binding of the other changes the refractive index at the surface.)

B1: TPP-2148: anti-TWEAKR human IgG1; heavy chain SEQ ID NO: 32, light chain SEQ ID NO: 31 (antibody, listed as Homo Sapiens)
heavy: EVQLLESGGGLVQPGGSLRLSCAASGFTFSPYPMMWVRQAPGKGLEWVSYISPSGGKTHYADSVKGRFTISRDNSKNTLYLQMNSLRAEDTAVYYCARGGDTYFDYFDYWGQGTLVTVSS[human IgG1 constant region not shown]
light: DIQMTQSPATLSASVGDRVTITCRASQSISSYLNWYQQKPGKAPKLLIYQASSLQSGVPSRFSGSGSGTDFTLTISSLQPEDFATYYCQQSYTSPFITFGPGTKVEIKRTVAAPSVFIFPPSDEQLKSGTASVVCLLNNFYPREAKVQWKVDNALQSGNSQESVTEQDSKDSTYSLSSTLTLSKADYEKHKLYACEVTHQGLSSPVTKSFNRGEC
In turn, B1 registered a ka of 5.1e+06 M⁻¹ s⁻¹ and a kd of 0.13 s⁻¹.

B2: TPP-2149: anti-TWEAKR human IgG1; heavy chain SEQ ID NO: 12, light chain SEQ ID NO: 11 (antibody, listed as Homo Sapiens)
heavy: EVQLLESGGGLVQPGGSLRLSCAASGFTFSPYPMIWVRQAPGKGLEWVSYISPSGGKTHYADSVKGRFTISRDNSKNTLYLQMNSLRAEDTAVYYCARGGDTYFDYFDYWGQGTLVTVSS[human IgG1 constant region not shown]
light: DIQMTQSPATLSASVGDRVTITCRASQSISGYLNWYQQKPGKAPKLLIYQASSLQSGVPSRFSGSGSGTDFTLTISSLQPEDFATYYCQQSYTSPFITFGPGTKVEIKRTVAAPSVFIFPPSDEQLKSGTASVVCLLNNFYPREAKVQWKVDNALQSGNSQESVTEQDSKDSTYSLSSTLTLSKADYEKHKLYACEVTHQGLSSPVTKSFNRGEC
Turning to B2, the ka was 8.4e+06 M⁻¹ s⁻¹ and the kd is 0.1 s⁻¹.

B3: TPP-2093: anti-TWEAKR human IgG1; heavy chain SEQ ID NO: 22, light chain SEQ ID NO: 21 (antibody, listed as Homo Sapiens)
heavy: EVQLLESGGGLVQPGGSLRLSCAASGFTFSPYPMMWVRQAPGKGLEWVSYISPSGGSTHYADSVKGRFTISRDNSKNTLYLQMNSLRAEDTAVYYCARGGDTYFDYFDYWGQGTLVTVSS[human IgG1 constant region not shown]
light: DIQMTQSPSSLSASVGDRVTITCRASQSISSYLNWYQQKPGKAPKLLIYQASSLQSGVPSRFSGSGSGTDFTLTISSLQPEDFATYYCQQSYTSPFITFGQGTKVEIKRTVAAPSVFIFPPSDEQLKSGTASVVCLLNNFYPREAKVQWKVDNALQSGNSQESVTEQDSKDSTYSLSSTLTLSKADYEKHKVYACEVTHQGLSSPVTKSFNRGEC
Regarding B3, the ka was 4.1e+06 M⁻¹ s⁻¹ and the kd is 0.09 s⁻¹.

The values above are taken from patent publication US20160237160A1, “ANTI-TWEAKR ANTIBODIES AND USES THEREOF” (BAYER PHARMA AKTIENGESELLSCHAFT, priority 2013, published 2016).
